Kd, koff and kon data for two molecules are collected here from patent US20210162061A1 (DINGFU BIOTARGET, published 2021).

For this assay, the target named is T1, CD47-muFc (human).
T1 construct: also called CD47-muFc fusion protein; Group 8
As to the kind of experiment: BLI (Octet K2), CD47-muFc immobilised on AHC biosensors, 25 C.

Chain of CD47-muFc (chain, as listed by the source limits assumed): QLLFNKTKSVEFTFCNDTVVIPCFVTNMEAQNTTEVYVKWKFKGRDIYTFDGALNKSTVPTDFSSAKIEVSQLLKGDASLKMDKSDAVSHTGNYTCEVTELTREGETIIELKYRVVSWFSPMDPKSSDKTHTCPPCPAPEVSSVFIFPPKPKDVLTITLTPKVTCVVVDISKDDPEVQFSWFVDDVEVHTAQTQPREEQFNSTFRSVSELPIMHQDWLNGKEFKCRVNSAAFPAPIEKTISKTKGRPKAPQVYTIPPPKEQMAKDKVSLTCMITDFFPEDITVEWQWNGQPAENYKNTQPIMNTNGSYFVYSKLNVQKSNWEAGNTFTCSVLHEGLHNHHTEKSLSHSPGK

B1: hu56di-SIRPα (Fc fusion)
chain 1: QVQLVESGGGLVQPGGSLRLSCAASGKMSSRRCMAWFRQAPGKERERVAKLLTTSGSTYLADSVKGRFTISRDNSKNTVYLQMNSLRAEDTAVYYCAADSFEDPTCTLVTSSGAFQYWGQGTLVTVSSGAPQVQLVESGGGLVQPGGSLRLSCAASGKMSSRRCMAWFRQAPGKERERVAKLLTTSGSTYLADSVKGRFTISRDNSKNTVYLQMNSLRAEDTAVYYCAADSFEDPTCTLVTSSGAFQYWGQGTLVTVSSEPKSSDKTHTCPPCPAPELLGGPSVFLFPPKPKDTLMISRTPEVTCVVVDVSHEDPEVKFNWYVDGVEVHNAKTKPREEQYNSTYRVVSVLTVLHQDWLNGKEYKCKVSNKALPAPIEKTISKAKGQPREPQVYTLPPCRDELTKNQVSLWCLVKGFYPSDIAVEWESNGQPENNYKTTPPVLDSDGSFFLYSALTVDKSRWQQGNVFSCSVMHEALHNHYTQKSLSLSPGK
chain 2: [not shown - about 120 residues][not shown - about 250 residues]
notes: One SIRPα arm, two anti-PD-L1 domains; also called hu56di-SIRPα immunoconjugate; Group 5
In turn, B1 returned a Kd of 5.3 nM, a dissociation rate constant (koff) of 0.00607 s⁻¹ and an on-rate constant (kon) of 1.14e+06 M⁻¹ s⁻¹.

B2: SIRPα-Fc IgG1 (Fc fusion)
chain: not shown
notes: also called human SIRPα-Fc IgG1; Group 7
On to B2, for which the equilibrium dissociation constant (Kd) worked out at 5.81 nM, the off-rate constant (koff) stood at 0.00377 s⁻¹ and the kon stood at 650000 M⁻¹ s⁻¹.
